Test results reported in PMC6919601, “Identification of Plasmodium dipeptidyl aminopeptidase allosteric inhibitors by high throughput screening” (PLoS ONE, 2019).
Screen size: about 110,000 compounds; about 230 (0.21%) showed an effect of 50% or more. The list shows a part of the results.

Biological target: DPAP1 (Plasmodium falciparum, UniProt Q8IIJ9)
Assay: primary screen, percent inhibition; read by cleavage of a fluorogenic dipeptide substrate; higher = more effect of the substance
Design: species or system P. falciparum D10 trophozoite lysates; single well
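Also: 30 min substrate incubation versus DMSO and 10 µM JCP410 controls.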

Sequence of DPAP1 (Q8IIJ9 whole entry, looked up): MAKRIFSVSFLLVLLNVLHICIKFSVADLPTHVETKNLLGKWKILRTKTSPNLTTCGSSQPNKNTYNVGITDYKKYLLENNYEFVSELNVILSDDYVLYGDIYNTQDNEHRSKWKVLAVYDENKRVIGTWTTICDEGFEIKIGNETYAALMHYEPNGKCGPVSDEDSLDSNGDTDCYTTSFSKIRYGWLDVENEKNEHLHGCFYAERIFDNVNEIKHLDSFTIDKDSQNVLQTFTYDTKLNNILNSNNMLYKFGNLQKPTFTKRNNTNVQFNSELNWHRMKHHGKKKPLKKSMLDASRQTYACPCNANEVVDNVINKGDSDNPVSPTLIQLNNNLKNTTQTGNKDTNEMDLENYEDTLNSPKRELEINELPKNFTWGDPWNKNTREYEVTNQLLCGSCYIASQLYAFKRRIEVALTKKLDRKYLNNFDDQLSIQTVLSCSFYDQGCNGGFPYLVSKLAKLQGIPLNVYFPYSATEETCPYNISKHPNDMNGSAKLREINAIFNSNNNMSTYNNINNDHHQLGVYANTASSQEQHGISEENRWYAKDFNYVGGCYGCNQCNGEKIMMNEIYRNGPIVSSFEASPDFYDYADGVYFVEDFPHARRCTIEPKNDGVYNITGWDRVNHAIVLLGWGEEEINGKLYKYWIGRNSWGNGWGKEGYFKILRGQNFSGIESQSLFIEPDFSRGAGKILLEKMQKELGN

| SMILES | % Inhibition @ 10 uM |
| --- | --- |
| O=C(CSc1nc2nncc-2c(O)n1-c1ccccc1)c1ccc2c(c1)OCCO2 | -2.77% |
| COc1cc2c(cc1OC)C1(CCCC1)CN(CCCN)C2C (stereo not drawn) | -2.63% |
| CC1(C)CC(=O)C2=C(C1)N(c1ccccc1)C(=O)C2(O)C(F)(F)F (stereo not drawn) | -4.39% |
| C=CCn1c(=N)c(C(N)=S)cc2c(=O)n3cccc(C)c3nc21 | -1.66% |
| Cc1csc2[n+]1-c1ccccc1N(C(=O)Nc1ccccc1)CC2 | -1.17% |
| COc1cc(NC2=NC(=O)/C(=C/c3cccs3)S2)c(C(=O)O)cc1OC | -2.28% |
| O=C1c2ccccc2-c2nc3ncnn3c(-c3ccc4c(c3)OCO4)c21 | 0.746% |
| O=C(O)c1ccc(NS(=O)(=O)c2ccc(-c3ccccc3)cc2)cc1 | -2.85% |
| COc1ccc(N2CCN(Cc3cccs3)CC2)cc1 | 4.04% |
| COc1ccccc1N1CCN(Cc2ccccn2)CC1 | 3.35% |
| Cc1cccc(-c2noc(CCC(=O)NCC(C)C)n2)c1 | 6.01% |
| COc1cccc(Nc2nc(-c3ccc(S(=O)(=O)N4CCCCC4)cc3)cs2)c1 | 4.16% |
| Cc1ccc(NC(=O)Cn2nc(C(F)(F)F)cc2C2CC2)cc1 | 1.59% |
| CCOC(=O)N1CCN(S(=O)(=O)N2CCCC(C(=O)NC(C)c3ccccc3)C2)CC1 (stereo not drawn) | -4.97% |
| Cc1cc(NC(=O)c2cc3nc(-c4ccccc4)cc(-c4ccccc4)n3n2)no1 | 3.54% |
| COc1ccc2c(CNCCCc3ccccc3)c(C(=O)O)n(Cc3ccccc3C)c2c1 | 1.69% |
| CCOC(=O)C1=C(C(F)(F)F)Nc2ncnn2C1c1ccc(Br)cc1 (stereo not drawn) | -1.62% |
| CCOc1cccc(C(=O)Nc2nn3c(-c4ccco4)nnc3s2)c1 | 0.522% |
| COC(=O)c1cc(C2CC2)[nH]n1 | -1.6% |
| O=S(=O)(O)c1nnc2n(Cc3ccccc3)c3ccccc3n12 | -0.45% |
| Cc1ccc(S(=O)(=O)N(CC(=O)Nc2ccccc2C(=O)O)c2cccc(Cl)c2C)cc1 | 4.74% |
| CS(=O)(=O)N(CC(=O)NC1CC1)c1cc(C(F)(F)F)ccc1Cl | 6.69% |
| CCOc1cc(C2C(C#N)=C(N)Oc3[nH]nc(-c4ccc5c(c4)OCO5)c32)ccc1OC (stereo not drawn) | 1.03% |
| CCOC(=O)CSc1nc(-c2ccccc2)cc(-c2ccccc2OC)c1C#N | 6.15% |
| Cc1cc(C)n(C(=O)C2CC=CCC2C(=O)O)n1 (stereo not drawn) | 3.94% |
| COc1ccc(-c2noc(O)n2)cc1 | -0.551% |

| SMILES | % Inhibition @ 10 uM |
| --- | --- |
| COc1ccc(S(=O)(=O)N(CC(=O)NC2CCCCC2)c2cc(C)cc(C)c2)cc1OC | -13.4% |
| COc1ccc(C2C(C#N)=C(N)Oc3c2ccc2ccccc32)cc1 (stereo not drawn) | -4.31% |
| Cc1nnc(NC(=O)CSc2nc(-c3ccccc3Cl)ns2)s1 | 2.53% |
| O=C(Nc1ccn(Cc2ccc(F)cc2)n1)C1c2ccccc2Oc2ccccc21 | 3.94% |
| Cn1c(CNC2CCCCC2)nc2ccccc21 | 2% |
| COC(=O)c1ccc2c(c1)C(=O)N(c1ccc(Br)cc1)C2=O | -5.78% |
| O=C(/C=C/c1ccccc1)Nc1ccc([N+](=O)[O-])cc1 | 2.94% |
| CCOc1cc(C2CC(=O)Nc3ccc4ccccc4c32)cc(Br)c1O (stereo not drawn) | -4.41% |
| O=C1C(=O)c2ccccc2/C1=C/c1ccc([N+](=O)[O-])cc1 | 16.5% |
| CC(C)C[C@H](NC(=O)C1CCC(C)CC1)C(=O)NCC#N (stereo partly drawn) | -3.04% |
| Cn1c(=O)c2c(ncn2CC(=O)Nc2nncs2)n(C)c1=O | 1.84% |
| CCOC(=O)C1=C(CN2CCC(c3ccc(C)cc3)C2)NC(=O)NC1c1ccc(OC(C)C)cc1 (stereo not drawn) | 0.708% |
| Cc1csc(NC(=O)C2CCCN(c3ncnc4c3nc3n4CCCCC3)C2)n1 (stereo not drawn) | 5.92% |
| CCC(=O)c1ccc2cccc3c2c1NC(CC)=N3 | 3.46% |
| Cc1cc(C)n(-c2nnc(C)n2/N=C/c2ccccc2OCC(=O)O)n1 | -4.51% |
| Cc1ccc(C(=O)O)cc1-c1ccc(/C=C2/SC(=O)NC2=O)o1 | -2.14% |
| Cc1nnc(N2CCC(C(=O)NCc3ccccc3F)CC2)c2c(C)n(Cc3ccccc3)c(C)c12 | 1.43% |
| COc1ccccc1C(=O)Nc1ccc(CC#N)cc1 | 0.83% |
| O=C(c1cnn2c(C(F)(F)F)cc(-c3ccc4c(c3)OCO4)nc12)N1CCCCC1 | 2.25% |
| O=C(c1ccccc1Cl)N1CCN(C/C=C/c2ccccc2)CC1 | -6.21% |
| Cc1ccc(CS(=O)Cc2ccc(C(=O)N3CCN(C4CCCCC4)CC3)o2)cc1 (stereo not drawn) | 2.57% |
| Cc1ccc(S(=O)(=O)N2CCN(C/C=C/c3ccccc3)CC2)c(C)c1C | -1.04% |
| Cc1ccc(S(=O)(=O)N2CCN(C(=O)N3CCCCC3)CC2)cc1 | -3.33% |
| COc1ccc(C)cc1NC(=O)C1CCN(C(=O)c2cc(OC)c(OC)c(OC)c2)CC1 | 1.28% |
| O=C1S/C(=C\c2ccc(Br)o2)C(=O)N1CCOc1ccccc1 | 2.01% |
